In PubChem BioAssay AID1645882 (National Center for Advancing Translational Sciences (NCATS), 2021):
Hit rate of the full screen: of about 16,000 compounds, about 120 (0.75%) were called active. Another 4% or so got no clear call; they are omitted. The call rests on the fitted dose curve; in most records, active means well fitted inhibition curve with a large enough effect; inconclusive means small, poorly fitted or top-dose-only effect; inactive means no such curve, though single readings can be large or run the other way. This is one part of the list.

These compounds were tested against Rap guanine nucleotide exchange factor 3 (Homo sapiens) (UniProt O95398) (assay: Validation qHTS for antagonist of cAMP-regulated guanine nucleotide exchange factor 3 (EPAC1)). Conditions: EPAC1 Rap1B-BODIPY-GDP exchange, fluorescence; series mostly up to 150 µM; activity change, negative = inhibition: at the top concentration.
Procedure, shortened: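 EPAC1 (100 nM) mixed with 250 nM RAP1B-BODIPY-GDP and 50 uM GDP; compounds in concentration series, 5 min at room temperature. Fluorescence (ex 480/em 540 nm) read every 5 min for 30 min; normalized to ATA control and DMSO.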
Further: nearly all actives have a fitted effect of over 75% in size.

UniProt O95398, sequence (O95398 whole entry, looked up): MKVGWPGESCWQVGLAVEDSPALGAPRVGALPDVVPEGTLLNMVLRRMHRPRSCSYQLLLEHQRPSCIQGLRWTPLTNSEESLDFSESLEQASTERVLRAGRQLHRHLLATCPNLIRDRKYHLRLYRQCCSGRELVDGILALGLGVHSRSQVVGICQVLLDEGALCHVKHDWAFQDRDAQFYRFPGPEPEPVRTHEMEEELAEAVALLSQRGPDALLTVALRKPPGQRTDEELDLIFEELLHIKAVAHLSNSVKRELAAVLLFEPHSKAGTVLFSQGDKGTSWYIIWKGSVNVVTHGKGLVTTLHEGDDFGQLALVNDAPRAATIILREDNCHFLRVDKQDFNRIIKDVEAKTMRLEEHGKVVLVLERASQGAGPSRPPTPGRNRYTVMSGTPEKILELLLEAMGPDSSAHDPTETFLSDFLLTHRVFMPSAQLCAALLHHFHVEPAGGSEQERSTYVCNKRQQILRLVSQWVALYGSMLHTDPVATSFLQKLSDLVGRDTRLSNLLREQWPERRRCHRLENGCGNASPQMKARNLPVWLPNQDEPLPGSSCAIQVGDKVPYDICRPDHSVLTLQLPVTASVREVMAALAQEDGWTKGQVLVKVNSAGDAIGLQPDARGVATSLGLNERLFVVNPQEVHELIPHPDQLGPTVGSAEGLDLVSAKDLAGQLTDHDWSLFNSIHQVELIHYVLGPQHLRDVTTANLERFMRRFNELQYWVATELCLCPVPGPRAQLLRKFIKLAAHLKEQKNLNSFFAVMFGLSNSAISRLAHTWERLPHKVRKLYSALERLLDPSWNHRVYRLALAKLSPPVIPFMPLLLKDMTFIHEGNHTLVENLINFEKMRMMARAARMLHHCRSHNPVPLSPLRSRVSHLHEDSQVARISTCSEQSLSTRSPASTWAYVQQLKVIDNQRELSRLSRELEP

Activity change, negative = inhibition, inactive:
CN1CCc2cc(NC(=O)Nc3cccnc3)ccc21 -3.99% [at 75.8 µM], O=C(c1ccccc1F)N(Cc1cc2cc3c(cc2nc1N1CCOCC1)CCC3)CC1CCCO1 (configuration not stated) -14.5%, CCCCC/C=C\CC1OC1CCCCCCCC(=O)O (configuration not stated) 14.9% [at 1.57 µM], Cn1c(-c2nc(-c3ccccc3)cs2)nc2ccccc21 15.4%, Nc1nc(N)c(-c2ccccc2)s1 10.7%, O=c1c(CN2CCOc3ccc(CN4CCC(Oc5cccnc5)CC4)cc3C2)coc2ccccc12 -16.5%, COc1ccccc1C1CN(CC(=O)N[C@H]2CCCCNC2=O)Cc2ccccc2O1 (some centres not stated) 3.92%, C(=C\c1cccs1)/c1ccccn1 -21.3%, CC(C)c1nc2cccnc2n1C1CCN(C(=O)Cn2cccn2)CC1 30.7%, COCCn1c(=O)c(-c2ccc(Cl)cc2)nc2cnc(Oc3cccc(Cl)c3)nc21 16%, CCNc1ncc2nc(-c3ccc(OC)cc3)c(=O)n(CCOC)c2n1 19.4%, Cn1c(=O)c(-c2ccc(Cl)cc2)nc2cnc(Nc3ccccc3)nc21 12.7%, O=c1c(-c2ccccc2)nc2cnc(Oc3cccc(Cl)c3)nc2n1C1CC1 -8.47%, O=c1ccn([C@H]2C[C@H](O)[C@@H](CO)O2)c(=O)[nH]1 13%, CN(C)CC(C)(O)c1ccc2c(c1)CN(Cc1cnn(-c3ccccc3)c1)CCO2 (configuration not stated) 23.3%, Cc1nc2cnc(N3CCOCC3)nc2n(CCc2ccccc2)c1=O 13.7%, N[C@@]1(C(=O)O)CN[C@@H](C(=O)O)C1 3.77%, Cc1c(NC(C)C)c(=O)n(-c2ccccc2)n1C 9.97%, COc1ccccc1CCNc1ncnc2sc(C(=O)N3CCCC3)c(C)c12 1.45%, c1cncc(OC2CCN(Cc3ccc4c(c3)CN(Cc3ccc5c(c3)OCCO5)CCO4)CC2)c1 6.92%, COc1cc(N)c(Cl)cc1C(=O)CCC1CCN(CCNS(C)(=O)=O)CC1, CCCNC(C)C(=O)Nc1c(C)csc1C(=O)OC (configuration not stated) -0.822% [at 75.8 µM], N#Cc1cccc(NC(=O)N2CCC3(CC2)CCN(C(=O)c2cnccn2)CC3)c1 12.3%, Clc1ccccc1-c1cc(NCc2cccnc2)ncn1 7.9%, COc1cccc(N(C)C(=S)Oc2ccc3c(c2)CCCC3)n1 5.96%, CCCCCCCCCC(=O)OCC(CO)OC(=O)CCCCCCCCC (configuration not stated) 8.19% [at 15.3 µM], CCN(Cc1ccncc1)Cc1ccc2c(c1)CN(C(=O)c1cccc(-n3nc(C)cc3C)c1)CCO2 10.4%, Nc1ccncc1N 11%, Oc1ccc([C@@H]2CNCCc3c2cc(O)c(O)c3Cl)cc1 10.5%, COC(=O)[C@H]1[C@H]2C[C@@H]3c4[nH]c5ccccc5c4CCN3C[C@H]2C[C@@H](OC(=O)c2cc(OC)c(OC)c(OC)c2)[C@@H]1OC, O=C(O)c1ccc(NC(=O)[C@H](Cc2ccc(O)cc2)NC(=O)c2ccccc2)cc1 8.96%, COC(=O)N1CCC2(CC1)CN(c1ccncc1)C2 3.12%, CCc1c(C)nc2c(OC)cccc2c1Cl 12.3%, CC(=O)C1CCC2C3CC=C4CC(O)CC[C@@]4(C)C3CC[C@]12C (some centres not stated) 15.1%, O=C(c1n[nH]c2c1CCCC2)N1CCOc2ccc(C(O)C(c3ccccc3)c3ccccc3)cc2C1 (configuration not stated) -8.79%, CN(C)Cc1ccccc1-c1nccc(N(C)Cc2ccco2)n1 11.7%, COc1ccc(C(=O)N2CCC3(CC2)CN(c2ccc(-c4ccccc4)cc2)C3)cc1 19.1%, COC(=O)[C@@H](N)Cc1ccc(O)c(O)c1, COc1ccc2c(c1)c(CC(=O)O)c(C)n2Cc1ccc(Cl)cc1 -6.29% [at 75.8 µM], C[C@]12CCC(=O)C=C1C=C[C@@H]1[C@@H]2CC[C@@]2(C)[C@H]1CC[C@@]21CCC(=O)O1 8.67%, O=S1(=O)CCO[C@H]2CCCC[C@@H]2N1Cc1cccc(F)c1 12.6%, C[C@H](/C=C/[C@H](C)C(C)(C)O)[C@H]1CC[C@H]2/C(=C/C=C3C[C@@H](O)C[C@H](O)C3)CCC[C@]12C 29.7%, COCC(=O)N1CCC2(CCN(Cc3ccccc3OC)CC2)CC1 9.62%, CC1(C)[C@@H](O)CC[C@]2(C)[C@H]3C(=O)C=C4[C@@H]5C[C@@](C)(C(=O)O)CC[C@]5(C)CC[C@@]4(C)[C@]3(C)CC[C@@H]12, Nc1ncnc2c1[nH]c(=O)n2C1CC(O)C(CO)O1 (configuration not stated) 11.4%, CN1CCN(c2nc(-c3ccc(N(C)C)cc3)nc3ccccc23)CC1 16.4%, COC(=O)CCc1ccc(OCC(O)CNC(C)C)cc1 (configuration not stated) 27.6%, CCCOC(=O)N[C@@H]1C(=O)N2C(C(=O)OCCC)=C(C)CS[C@H]12 -0.626%, N[C@H](C(=O)O)[C@H]1C[C@H]1C(=O)O 18.5%, COCCOC(=O)C1=C(C)NC(C)=C(C(=O)OC(C)C)C1c1cccc([N+](=O)[O-])c1 (configuration not stated), NCCS, CN1C(C(=O)Nc2ccccn2)=C(O)c2ccccc2S1(=O)=O, O=C(NCC1Cc2cc(F)cc(-c3cnccn3)c2O1)c1cccc(-c2ccccc2F)c1 (configuration not stated) -16.9%, O=C(c1cnsn1)N1CCOc2ccc(C(O)C(c3ccccc3)c3ccccc3)cc2C1 (configuration not stated) 0.764%, O=C(N[C@@H]1c2ccccc2C2(CCN(C(=O)c3cc4ccccc4oc3=O)CC2)[C@H]1O)c1cccnc1 11.4%, O=C(C[n+]1ccncc1Cl)c1ccc(F)cc1 10.8%, COc1ccc(C2Oc3cc(OC)cc(OC)c3CC2O)cc1 (configuration not stated) 7.42%, COc1ccccc1CN1CCOc2ccc(C(C)(O)COc3ccccc3)cc2C1 (configuration not stated) -3.89%, Cc1noc(C)c1C(=O)N1CCC2(CCN(C(=O)Nc3ccccc3)CC2)CC1 3.07%, O=C(O)c1ccc(-n2nc(-c3ccccc3O)nc2-c2ccccc2O)cc1 29.7%, N#Cc1cccc(-c2nc(Nc3ccncc3)c3ccccc3n2)c1 6.07%, COc1ccccc1-c1ccc(C(=O)NCCN2CCOCC2)c(N2CCN(c3ccccc3F)CC2)n1 17.3%, CCCCCC(=O)Cc1cc(O)cc(O)c1C(=O)Oc1cc(CC(=O)CCCCC)c(C(=O)O)c(OC)c1 -3.31%, NC(=O)OCC(O)COc1ccc(Cl)cc1 (configuration not stated) 19.5% [at 75.8 µM], Cn1c(=O)c(-c2cccs2)nc2cncnc21 15.4%, CN(C)CCC=C1c2ccccc2C(C)(C)c2ccccc21 1.37%, N=C(N)SCCc1ccc(CCSC(=N)N)cc1 17% [at 75.8 µM]
